We go through 78 variants from the supplement of paper PMC7125110.

± gives the standard error. This sample is rich in variants without activity. Where only a bound is given, the exact number is not on record here.

B1: glmS ribozyme (parent)
chain: AUAAAAGCGCCAGAACUACAGAAAUGUAGUUGACGAGGAGGAGGUUUAUCGAAUUUUCGGCGGAUGCCUCCAAA

One data set covers variants of B1. The experiment in a line: self-cleavage kobs at 2500 uM GlcN6P; higher = faster cleavage; RNA array. The settings on record: with glucosamine-6-phosphate. An outline of the steps: (§1)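 Weighted Michaelis–Menten fits across concentrations supplied kcat and KM, based on kobs from one- or two-exponential decay fits to normalised per-tile medians. The data came from barcoded ribozyme variants transcribed in situ by E. coli RNA polymerase on sequenced MiSeq chips and tracked at 37 °C by a hybridised Cy3 probe. Glucosamine-6-phosphate (40 μM to 10 mM) in HEPES/KCl/Mg(OAc)2 buffer was flowed in.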
As for U54G C61U, the “self-cleavage kobs at 2500 uM GlcN6P” value is 3.11e-05 ± 1.3e-05 s⁻¹.

For G51C C61G, the “self-cleavage kobs at 2500 uM GlcN6P” value is less than 1e-05 s⁻¹.

Regarding C50U G51A U54C G60U, the “self-cleavage kobs at 2500 uM GlcN6P” value was less than 1e-05 s⁻¹.

Turning to G51C A52C, the “self-cleavage kobs at 2500 uM GlcN6P” value is less than 1e-05 s⁻¹.

As to U56C A64U C70G, the “self-cleavage kobs at 2500 uM GlcN6P” value was less than 1e-05 s⁻¹.

G62A G66C: the “self-cleavage kobs at 2500 uM GlcN6P” value was less than 1e-05 s⁻¹.

For U54G G62A, the “self-cleavage kobs at 2500 uM GlcN6P” value is less than 1e-05 s⁻¹.

On to A42U C70A, for which the “self-cleavage kobs at 2500 uM GlcN6P” value is 9.98e-05 ± 1.2e-05 s⁻¹.

In the case of U47A C50A G59U G66C, the “self-cleavage kobs at 2500 uM GlcN6P” value is less than 1e-05 s⁻¹.

For the variant A48C C58G, the “self-cleavage kobs at 2500 uM GlcN6P” value was less than 1e-05 s⁻¹.

For the variant G62C G66A, the “self-cleavage kobs at 2500 uM GlcN6P” value is less than 1e-05 s⁻¹.

Regarding A42G A53U U55A G60A G63C C71A, the “self-cleavage kobs at 2500 uM GlcN6P” value was less than 1e-05 s⁻¹.

A48G U49G G63C U65C: the “self-cleavage kobs at 2500 uM GlcN6P” value was less than 1e-05 s⁻¹.

For U56C A64G, the “self-cleavage kobs at 2500 uM GlcN6P” value worked out at 8.52e-05 ± 2.8e-05 s⁻¹.

With G43A G44C U54G, the “self-cleavage kobs at 2500 uM GlcN6P” value is less than 1e-05 s⁻¹.

Turning to G43U A53G C61A, the “self-cleavage kobs at 2500 uM GlcN6P” value was less than 1e-05 s⁻¹.

Take G41U A52C U69G: the “self-cleavage kobs at 2500 uM GlcN6P” value was less than 1e-05 s⁻¹.

On to G43A A48G U54G C67U, for which the “self-cleavage kobs at 2500 uM GlcN6P” value was less than 1e-05 s⁻¹.

Consider A42C U56C C67G, for which the “self-cleavage kobs at 2500 uM GlcN6P” value is less than 1e-05 s⁻¹.

On to U45G C50U G62A, for which the “self-cleavage kobs at 2500 uM GlcN6P” value was less than 1e-05 s⁻¹.

With C50A U69C, the “self-cleavage kobs at 2500 uM GlcN6P” value was determined as 6.67e-05 ± 2e-05 s⁻¹.

As to A52C C58U G59U, the “self-cleavage kobs at 2500 uM GlcN6P” value was less than 1e-05 s⁻¹.

For G44U G51U C68U, the “self-cleavage kobs at 2500 uM GlcN6P” value was less than 1e-05 s⁻¹.

In the case of C58A G60U A64C, the “self-cleavage kobs at 2500 uM GlcN6P” value is less than 1e-05 s⁻¹.

For the variant A42C G43A A52C C58G, the “self-cleavage kobs at 2500 uM GlcN6P” value was less than 1e-05 s⁻¹.

U49C A53U C70U: the “self-cleavage kobs at 2500 uM GlcN6P” value is less than 1e-05 s⁻¹.

C58A U65G C70U: the “self-cleavage kobs at 2500 uM GlcN6P” value turned out to be 6.2e-05 ± 2.7e-05 s⁻¹.

As to G62U A64G C70U, the “self-cleavage kobs at 2500 uM GlcN6P” value is less than 1e-05 s⁻¹.

Regarding C50U U54G U55C U57C, the “self-cleavage kobs at 2500 uM GlcN6P” value is less than 1e-05 s⁻¹.

A further data set covers variants of B1. Nature of the data set: self-cleavage kobs at 10000 uM GlcN6P; higher = faster cleavage; RNA array. The settings on record: with glucosamine-6-phosphate. The gist of the method:
as §1
With U54G C61U, the “self-cleavage kobs at 10000 uM GlcN6P” value came to 2.39e-05 ± 1e-05 s⁻¹.

Regarding A12C G35U A48C C50A C67G, the “self-cleavage kobs at 10000 uM GlcN6P” value is less than 1e-05 s⁻¹.

G7U G13U G37C G66U: the “self-cleavage kobs at 10000 uM GlcN6P” value was less than 1e-05 s⁻¹.

Take C8A U65G: the “self-cleavage kobs at 10000 uM GlcN6P” value is less than 1e-05 s⁻¹.

C8U G35C A36G G37C A39G G40A G66U: the “self-cleavage kobs at 10000 uM GlcN6P” value was less than 1e-05 s⁻¹.

Regarding A12U A14G U57A, the “self-cleavage kobs at 10000 uM GlcN6P” value amounted to 0.000643 ± 0.00011 s⁻¹.

G7C C8G G41A U65G G66U: the “self-cleavage kobs at 10000 uM GlcN6P” value was less than 1e-05 s⁻¹.

Consider G7U U55C C58A C67A, for which the “self-cleavage kobs at 10000 uM GlcN6P” value is less than 1e-05 s⁻¹.

On to C11U U46C A48U, for which the “self-cleavage kobs at 10000 uM GlcN6P” value was less than 1e-05 s⁻¹.

For the variant A6G C11U A12C G35A C50U, the “self-cleavage kobs at 10000 uM GlcN6P” value is less than 1e-05 s⁻¹.

U56C A64U C70G: the “self-cleavage kobs at 10000 uM GlcN6P” value is less than 1e-05 s⁻¹.

With G62A G66C, the “self-cleavage kobs at 10000 uM GlcN6P” value is less than 1e-05 s⁻¹.

As for C8G G41U G66U C70G, the “self-cleavage kobs at 10000 uM GlcN6P” value is less than 1e-05 s⁻¹.

In the case of A42U C70A, the “self-cleavage kobs at 10000 uM GlcN6P” value came out at 0.00012 ± 9.1e-06 s⁻¹.

As for C8U U31A G32C U45C, the “self-cleavage kobs at 10000 uM GlcN6P” value is less than 1e-05 s⁻¹.

On to A12C G60C C61A, for which the “self-cleavage kobs at 10000 uM GlcN6P” value was less than 1e-05 s⁻¹.

Take C10U A48U U56C C71G: the “self-cleavage kobs at 10000 uM GlcN6P” value is less than 1e-05 s⁻¹.

Regarding C8U C11U U47G, the “self-cleavage kobs at 10000 uM GlcN6P” value was less than 1e-05 s⁻¹.

As for G9U A33U G40A C58U, the “self-cleavage kobs at 10000 uM GlcN6P” value was less than 1e-05 s⁻¹.

On to G13C A42G U65C, for which the “self-cleavage kobs at 10000 uM GlcN6P” value is less than 1e-05 s⁻¹.

As to A48C C58G, the “self-cleavage kobs at 10000 uM GlcN6P” value was less than 1e-05 s⁻¹.

Consider C8A G40A C50U, for which the “self-cleavage kobs at 10000 uM GlcN6P” value was less than 1e-05 s⁻¹.

As to C11U U31G U54A, the “self-cleavage kobs at 10000 uM GlcN6P” value is 0.0029 ± 0.0008 s⁻¹.

On to C10G G37U A64G, for which the “self-cleavage kobs at 10000 uM GlcN6P” value was less than 1e-05 s⁻¹.

A12G U49A G66U C71G: the “self-cleavage kobs at 10000 uM GlcN6P” value is less than 1e-05 s⁻¹.

As to A12U G51C C67U, the “self-cleavage kobs at 10000 uM GlcN6P” value was less than 1e-05 s⁻¹.

For the variant C8G A15G U45G, the “self-cleavage kobs at 10000 uM GlcN6P” value is less than 1e-05 s⁻¹.

Regarding G9U U30C G35U G60U A64U, the “self-cleavage kobs at 10000 uM GlcN6P” value is less than 1e-05 s⁻¹.

For the variant C8G U45C G60C, the “self-cleavage kobs at 10000 uM GlcN6P” value was less than 1e-05 s⁻¹.

Regarding C8U U31C A52U, the “self-cleavage kobs at 10000 uM GlcN6P” value was less than 1e-05 s⁻¹.

Turning to C11G G44C U65C C67G C70U, the “self-cleavage kobs at 10000 uM GlcN6P” value was less than 1e-05 s⁻¹.

As for C11A G35C C67A, the “self-cleavage kobs at 10000 uM GlcN6P” value was less than 1e-05 s⁻¹.

With U56C A64G, the “self-cleavage kobs at 10000 uM GlcN6P” value turned out to be 0.000131 ± 2e-05 s⁻¹.

In the case of C11U G38U U45A A48U C71G, the “self-cleavage kobs at 10000 uM GlcN6P” value was less than 1e-05 s⁻¹.

In the case of G13C U55G C58G, the “self-cleavage kobs at 10000 uM GlcN6P” value worked out at 4.29e-05 ± 1.4e-05 s⁻¹.

As for C11G G29U A33G C61G C71U, the “self-cleavage kobs at 10000 uM GlcN6P” value was less than 1e-05 s⁻¹.

On to C10G A39C G41A A48C, for which the “self-cleavage kobs at 10000 uM GlcN6P” value is less than 1e-05 s⁻¹.

On to G13A U46G A48U A52C G63C, for which the “self-cleavage kobs at 10000 uM GlcN6P” value was less than 1e-05 s⁻¹.

G9U G38A A39G C67U: the “self-cleavage kobs at 10000 uM GlcN6P” value is less than 1e-05 s⁻¹.

On to C8U G38U G43U, for which the “self-cleavage kobs at 10000 uM GlcN6P” value was less than 1e-05 s⁻¹.

For A12U C50A G51U C58G, the “self-cleavage kobs at 10000 uM GlcN6P” value is less than 1e-05 s⁻¹.

For C8A A36G U57C, the “self-cleavage kobs at 10000 uM GlcN6P” value is less than 1e-05 s⁻¹.

Turning to C8G G40U C67U U69G, the “self-cleavage kobs at 10000 uM GlcN6P” value is less than 1e-05 s⁻¹.

With G7U A15C G32U A48C C61U, the “self-cleavage kobs at 10000 uM GlcN6P” value is less than 1e-05 s⁻¹.

For the variant C58A G60U A64C, the “self-cleavage kobs at 10000 uM GlcN6P” value is less than 1e-05 s⁻¹.

On to C10U A36C G44A, for which the “self-cleavage kobs at 10000 uM GlcN6P” value was less than 1e-05 s⁻¹.

For the variant G7C C16A A39G C50G G59C, the “self-cleavage kobs at 10000 uM GlcN6P” value is less than 1e-05 s⁻¹.

In the case of A6G C67U C70U, the “self-cleavage kobs at 10000 uM GlcN6P” value was less than 1e-05 s⁻¹.

In the case of G7A G21U G66U, the “self-cleavage kobs at 10000 uM GlcN6P” value is less than 1e-05 s⁻¹.

As to C10U U55C G62U, the “self-cleavage kobs at 10000 uM GlcN6P” value is less than 1e-05 s⁻¹.

With C8A C34A A64G, the “self-cleavage kobs at 10000 uM GlcN6P” value is less than 1e-05 s⁻¹.

With G7U G38A U55A C71G, the “self-cleavage kobs at 10000 uM GlcN6P” value is less than 1e-05 s⁻¹.

Take C10U C11A A53G: the “self-cleavage kobs at 10000 uM GlcN6P” value was less than 1e-05 s⁻¹.

For the variant G9U G37U U46C, the “self-cleavage kobs at 10000 uM GlcN6P” value was less than 1e-05 s⁻¹.

G62U A64G C70U: the “self-cleavage kobs at 10000 uM GlcN6P” value was less than 1e-05 s⁻¹.

As to A12U G41A U54C, the “self-cleavage kobs at 10000 uM GlcN6P” value worked out at 0.000963 ± 0.00021 s⁻¹.

Consider G13C U46C C61U, for which the “self-cleavage kobs at 10000 uM GlcN6P” value was less than 1e-05 s⁻¹.
